The supplement of paper PMC8728848
This is one part of the list.

Assays:
Assay in all cases: glycan array binding signal (z-score within array); higher = stronger binding
Conditions in all cases: glycan notation: IUPAC condensed, linker removed
[1] = biological target: Neu5Ac(a2-6)Gal(b1-4)GlcNAc(b1-3)Gal(b1-4)GlcNAc(b1-3)Gal(b1-4)GlcNAc(b1-2)Man(a1-3)[Neu5Ac(a2-6)Gal(b1-4)GlcNAc(b1-3)Gal(b1-4)GlcNAc(b1-3)Gal(b1-4)GlcNAc(b1-2)Man(a1-6)]GalNAc
Summary of the method: (§1)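 The binding signal is a Z-score computed within each array. Data were drawn from 3228 arrays in the Consortium for Functional Glycomics database, restricted to those with a known protein sequence. Scores were averaged over arrays of the same protein sequence at different concentrations or buffers, and over linkers, and negative values can be taken as non-binding.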

[2] = biological target: Neu5Ac(a2-6)Gal(b1-4)GlcNAc(b1-3)Gal(b1-4)GlcNAc(b1-3)GalNAc
Summary of the method: as §1

[3] = biological target: Neu5Ac(a2-6)Gal(b1-4)GlcNAc(b1-3)Gal(b1-4)GlcNAc(b1-3)[Neu5Ac(a2-6)Gal(b1-4)GlcNAc(b1-3)Gal(b1-4)GlcNAc(b1-6)]GalNAc
Summary of the method: as §1

[4] = biological target: Neu5Ac(a2-6)Gal(b1-4)GlcNAc(b1-3)Gal(b1-4)GlcNAc(b1-6)[Gal(b1-3)]GalNAc
Summary of the method: as §1

[5] = biological target: Neu5Ac(a2-6)Gal(b1-4)GlcNAc(b1-3)Gal(b1-4)[Fuc(a1-3)]GlcNAc(b1-3)Gal(b1-4)[Fuc(a1-3)]GlcNAc
Summary of the method: as §1

[6] = biological target: Neu5Ac(a2-6)Gal(b1-4)GlcNAc(b1-3)GalNAc
Summary of the method: as §1

[7] = biological target: Neu5Ac(a2-6)Gal(b1-4)GlcNAc(b1-3)[Neu5Ac(a2-6)Gal(b1-4)GlcNAc(b1-6)]GalNAc
Summary of the method: as §1

[8] = biological target: Neu5Ac(a2-6)Gal(b1-4)GlcNAc(b1-6)GalNAc
Summary of the method: as §1

[9] = biological target: Neu5Ac(a2-6)Gal(b1-4)GlcNAc(b1-6)[Gal(b1-3)GlcNAc(b1-3)]Gal(b1-4)Glc
Summary of the method: as §1

[10] = biological target: Neu5Ac(a2-6)Gal(b1-4)GlcNAc(b1-6)[Gal(b1-3)]GalNAc
Summary of the method: as §1

[11] = biological target: Neu5Ac(a2-6)Gal(b1-4)GlcNAc6S
Summary of the method: as §1

Neu5Ac(a2-6)GalNAc = biological target: Neu5Ac(a2-6)GalNAc
Summary of the method: as §1

[12] = biological target: Neu5Ac(a2-6)GalNAc(b1-4)GlcNAc
Summary of the method: as §1

[13] = biological target: Neu5Ac(a2-6)GalNAc(b1-4)GlcNAc6S
Summary of the method: as §1

[14] = biological target: Neu5Ac(a2-6)GlcNAc(b1-4)GlcNAc
Summary of the method: as §1

[15] = biological target: Neu5Ac(a2-6)GlcNAc(b1-4)GlcNAc(b1-4)GlcNAc
Summary of the method: as §1

Neu5Ac(a2-8)Neu5Ac = biological target: Neu5Ac(a2-8)Neu5Ac
Summary of the method: as §1

[16] = biological target: Neu5Ac(a2-8)Neu5Ac(a2-3)Gal(b1-3)GalNAc(b1-4)[Neu5Ac(a2-3)]Gal(b1-4)Glc
Summary of the method: as §1

[17] = biological target: Neu5Ac(a2-8)Neu5Ac(a2-3)Gal(b1-3)GalNAc(b1-4)[Neu5Ac(a2-8)Neu5Ac(a2-3)]Gal(b1-4)Glc
Summary of the method: as §1

[18] = biological target: Neu5Ac(a2-8)Neu5Ac(a2-3)Gal(b1-4)Glc
Summary of the method: as §1

[19] = biological target: Neu5Ac(a2-8)Neu5Ac(a2-3)Gal(b1-4)GlcNAc
Summary of the method: as §1

[20] = biological target: Neu5Ac(a2-8)Neu5Ac(a2-3)[Gal(b1-3)GalNAc(b1-4)]Gal(b1-4)Glc
Summary of the method: as §1

[21] = biological target: Neu5Ac(a2-8)Neu5Ac(a2-3)[GalNAc(b1-4)]Gal(b1-4)Glc
Summary of the method: as §1

[22] = biological target: Neu5Ac(a2-8)Neu5Ac(a2-8)Neu5Ac
Summary of the method: as §1

[23] = biological target: Neu5Ac(a2-8)Neu5Ac(a2-8)Neu5Ac(a2-3)Gal(b1-4)Glc
Summary of the method: as §1

[24] = biological target: Neu5Ac(a2-8)Neu5Ac(a2-8)Neu5Ac(a2-3)[Gal(b1-3)GalNAc(b1-4)]Gal(b1-4)Glc
Summary of the method: as §1

[25] = biological target: Neu5Ac(a2-8)Neu5Ac(a2-8)Neu5Ac(a2-3)[GalNAc(b1-4)]Gal(b1-4)Glc
Summary of the method: as §1

[26] = biological target: Neu5Ac(a2-8)Neu5Ac(a2-8)Neu5Ac(a2-8)Neu5Ac(a2-3)[GalNAc(b1-4)]Gal(b1-4)Glc
Summary of the method: as §1

[27] = biological target: Neu5Ac(a2-8)Neu5Gc(a2-3)Gal(b1-4)GlcNAc
Summary of the method: as §1

[28] = biological target: Neu5Ac(b2-6)Gal(b1-4)GlcNAc
Summary of the method: as §1

Neu5Ac(b2-6)GalNAc = biological target: Neu5Ac(b2-6)GalNAc
Summary of the method: as §1

[29] = biological target: Neu5Ac9Ac(a2-3)Gal(b1-3)GlcNAc
Summary of the method: as §1

[30] = biological target: Neu5Ac9Ac(a2-3)Gal(b1-4)GlcNAc
Summary of the method: as §1

[31] = biological target: Neu5Ac9Ac(a2-6)Gal(b1-4)GlcNAc
Summary of the method: as §1

[32] = biological target: Neu5Gc(a2-3)Gal(b1-3)GlcNAc
Summary of the method: as §1

[33] = biological target: Neu5Gc(a2-3)Gal(b1-3)[Fuc(a1-4)]GlcNAc
Summary of the method: as §1

Neu5Gc(a2-3)Gal(b1-4)Glc = biological target: Neu5Gc(a2-3)Gal(b1-4)Glc
Summary of the method: as §1

[34] = biological target: Neu5Gc(a2-3)Gal(b1-4)GlcNAc
Summary of the method: as §1

[35] = biological target: Neu5Gc(a2-3)Gal(b1-4)GlcNAc(b1-3)Gal(b1-4)GlcNAc(b1-2)Man(a1-3)[Neu5Gc(a2-3)Gal(b1-4)GlcNAc(b1-3)Gal(b1-4)GlcNAc(b1-2)Man(a1-6)]Man(b1-4)GlcNAc(b1-4)GlcNAc
Summary of the method: as §1

[36] = biological target: Neu5Gc(a2-3)Gal(b1-4)[Fuc(a1-3)]GlcNAc
Summary of the method: as §1

[37] = biological target: Neu5Gc(a2-6)Gal(b1-4)GlcNAc
Summary of the method: as §1

Neu5Gc(a2-6)GalNAc = biological target: Neu5Gc(a2-6)GalNAc
Summary of the method: as §1

[38] = biological target: Neu5Gc(a2-8)Neu5Ac(a2-3)Gal(b1-4)GlcNAc
Summary of the method: as §1

[39] = biological target: Neu5Gc(a2-8)Neu5Gc(a2-3)Gal(b1-4)GlcNAc
Summary of the method: as §1

[40] = biological target: Neu5Gc(a2-8)Neu5Gc(a2-3)Gal(b1-4)GlcNAc(b1-3)Gal(b1-4)GlcNAc
Summary of the method: as §1

B1: FimA-N1 (Actinomyces oris) (protein)
chain: MHHHHHHSSGVDLGTENLYFQSNATETPNYGNIKTDATGSLVIHKHLTGGGKDIGTPTGTAQNADDKGPAVEGVVFTAYPITDINLKDPAGWDTISNLSRTGVPDSACANPAAPTLGAHQFGTPKVSPATTKEGLATITEMPVQAYLVCETTTPGDIVQKAKPFVVTIPHPNTAAGADGQWIYDVNVYPKNEAIDVDKTIQAQK
glycan array binding signal (z-score) [1]: 0.256 | glycan array binding signal (z-score) [2]: -0.553 | glycan array binding signal (z-score) [3]: -0.041 | glycan array binding signal (z-score) [4]: -0.302 | glycan array binding signal (z-score) [5]: 0.093 | glycan array binding signal (z-score) [6]: 0.296 | glycan array binding signal (z-score) [7]: -0.218 | glycan array binding signal (z-score) [8]: -0.288 | glycan array binding signal (z-score) [9]: -0.313 | glycan array binding signal (z-score) [10]: -0.149 | glycan array binding signal (z-score) [11]: -0.202 | glycan array binding signal (z-score) (Neu5Ac(a2-6)GalNAc): -0.3 | glycan array binding signal (z-score) [12]: -0.311 | glycan array binding signal (z-score) [13]: 0.191 | glycan array binding signal (z-score) [14]: -0.533 | glycan array binding signal (z-score) [15]: 0.006 | glycan array binding signal (z-score) (Neu5Ac(a2-8)Neu5Ac): -0.132 | glycan array binding signal (z-score) [16]: -0.163 | glycan array binding signal (z-score) [17]: -0.163 | glycan array binding signal (z-score) [18]: -0.361 | glycan array binding signal (z-score) [19]: -0.208 | glycan array binding signal (z-score) [20]: -0.299 | glycan array binding signal (z-score) [21]: -0.35 | glycan array binding signal (z-score) [22]: -0.204 | glycan array binding signal (z-score) [23]: -0.363 | glycan array binding signal (z-score) [24]: -0.177 | glycan array binding signal (z-score) [25]: -0.242 | glycan array binding signal (z-score) [26]: 0.066 | glycan array binding signal (z-score) [27]: -0.2 | glycan array binding signal (z-score) [28]: -0.349 | glycan array binding signal (z-score) (Neu5Ac(b2-6)GalNAc): -0.177 | glycan array binding signal (z-score) [29]: 0.409 | glycan array binding signal (z-score) [30]: -0.144 | glycan array binding signal (z-score) [31]: -0.256 | glycan array binding signal (z-score) [32]: -0.089 | glycan array binding signal (z-score) [33]: -0.09 | glycan array binding signal (z-score) (Neu5Gc(a2-3)Gal(b1-4)Glc): 0.004 | glycan array binding signal (z-score) [34]: -0.11 | glycan array binding signal (z-score) [35]: 0.271 | glycan array binding signal (z-score) [36]: -0.068 | glycan array binding signal (z-score) [37]: -0.072 | glycan array binding signal (z-score) (Neu5Gc(a2-6)GalNAc): -0.069 | glycan array binding signal (z-score) [38]: -0.25 | glycan array binding signal (z-score) [39]: -0.497 | glycan array binding signal (z-score) [40]: -0.196
